Article PMC12820563
The other results are listed elsewhere or left out. The list includes weakly bound sequences.

Molecular target: T1, MBP-FoxP3dN (UniProt Q99JB6)
T1 sequence: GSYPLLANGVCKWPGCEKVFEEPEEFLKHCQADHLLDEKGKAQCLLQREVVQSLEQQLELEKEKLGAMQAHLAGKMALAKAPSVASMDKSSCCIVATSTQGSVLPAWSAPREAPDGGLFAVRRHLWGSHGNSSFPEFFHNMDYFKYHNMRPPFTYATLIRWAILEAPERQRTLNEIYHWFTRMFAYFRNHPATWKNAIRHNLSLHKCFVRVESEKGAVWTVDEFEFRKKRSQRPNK
Assay: PD-seq (MBP pull-down with sequencing)
Details: 20 mM Tris-HCl pH 7.5, 100 mM NaCl, 1.5 mM MgCl2, 0.4 uM protein, 0.1 uM dsDNA library, 30 min, room temperature, amylose pull-down; high values mean tight binding; double strand, one strand shown

| Sequence | binding signal (RPM ratio (pull-down/input)) |
| --- | --- |
| GATGATTGTTCTCCCAGCTGATGAATTCTCTATCTCGAGTAAACAAATTTTCCTAATCTTTCTGTTCAAGCGCCATCTAC | 0.282 |
| GATGATTGTTCTCCCAGCTGATGAATTGCTAACGTCGAGTAAACAAATTTTCCTAATCTTTCTGTTCAAGCGCCATCTAC | 0.632 |
| GATGATTGTTCTCCCAGCTGATGAATTTAGCCGTTCGAGTAAACAAATTTTCCTAATCTTTCTGTTCAAGCGCCATCTAC | 1.08 |
| GATGATTGTTCTCCCAGCTGATGAATTTGCATATTCGAGTAAACAAATTTTCCTAATCTTTCTGTTCAAGCGCCATCTAC | 2.72 |
| GATGATTGTTCTCCCAGCTGATGAATTGTCTGGTTCGAGTAAACAAATTTTCCTAATCTTTCTGTTCAAGCGCCATCTAC | 0.341 |
| GATGATTGTTCTCCCAGCTGATGAATTACAGTTATCGAGTAAACAAATTTTCCTAATCTTTCTGTTCAAGCGCCATCTAC | 0.992 |
| GATGATTGTTCTCCCAGCTGATGAATTTCCACGATCGAGTAAACAAATTTTCCTAATCTTTCTGTTCAAGCGCCATCTAC | 0.211 |
| GATGATTGTTCTCCCAGCTGATGAATTAACTGACTCGAGTAAACAAATTTTCCTAATCTTTCTGTTCAAGCGCCATCTAC | 0.33 |
| GATGATTGTTCTCCCAGCTGATGAATTGCCCAAGTCGAGTAAACAAATTTTCCTAATCTTTCTGTTCAAGCGCCATCTAC | 0.333 |
| GATGATTGTTCTCCCAGCTGATGAATTCCCGTTGTCGAGTAAACAAATTTTCCTAATCTTTCTGTTCAAGCGCCATCTAC | 0.526 |
| GATGATTGTTCTCCCAGCTGATGAATTCGAAACTTCGAGTAAACAAATTTTCCTAATCTTTCTGTTCAAGCGCCATCTAC | 0.319 |
| GATGATTGTTCTCCCAGCTGATGAATTCTATCGATCGAGTAAACAAATTTTCCTAATCTTTCTGTTCAAGCGCCATCTAC | 0.418 |
| GATGATTGTTCTCCCAGCTGATGAATTCCTATGATCGAGTAAACAAATTTTCCTAATCTTTCTGTTCAAGCGCCATCTAC | 0.311 |
| GATGATTGTTCTCCCAGCTGATGAATTTAAGGAGTCGAGTAAACAAATTTTCCTAATCTTTCTGTTCAAGCGCCATCTAC | 0.228 |
| GATGATTGTTCTCCCAGCTGATGAATTTTGTTCATCGAGTAAACAAATTTTCCTAATCTTTCTGTTCAAGCGCCATCTAC | 1.34 |
| GATGATTGTTCTCCCAGCTGATGAATTGTATTAATCGAGTAAACAAATTTTCCTAATCTTTCTGTTCAAGCGCCATCTAC | 1.04 |
| GATGATTGTTCTCCCAGCTGATGAATTGAAGCTCTCGAGTAAACAAATTTTCCTAATCTTTCTGTTCAAGCGCCATCTAC | 0.336 |
| GATGATTGTTCTCCCAGCTGATGAATTGTTTTGCTCGAGTAAACAAATTTTCCTAATCTTTCTGTTCAAGCGCCATCTAC | 3.65 |
| GATGATTGTTCTCCCAGCTGATGAATTCTGGCAGTCGAGTAAACAAATTTTCCTAATCTTTCTGTTCAAGCGCCATCTAC | 0.34 |
| GATGATTGTTCTCCCAGCTGATGAATTCCTACGTTCGAGTAAACAAATTTTCCTAATCTTTCTGTTCAAGCGCCATCTAC | 0.294 |
| GATGATTGTTCTCCCAGCTGATGAATTCACCGTATCGAGTAAACAAATTTTCCTAATCTTTCTGTTCAAGCGCCATCTAC | 0.49 |

| Sequence | binding signal (RPM ratio (pull-down/input)) |
| --- | --- |
| GATGATTGTTCTCCCAGCTGATGAATTTTGCACGTCGAGTAAACAAATTTTCCTAATCTTTCTGTTCAAGCGCCATCTAC | 3.32 |
| GATGATTGTTCTCCCAGCTGATGAATTTTTGTGCTCGAGTAAACAAATTTTCCTAATCTTTCTGTTCAAGCGCCATCTAC | 0.442 |
| GATGATTGTTCTCCCAGCTGATGAATTCAGGACTTCGAGTAAACAAATTTTCCTAATCTTTCTGTTCAAGCGCCATCTAC | 0.328 |
| GATGATTGTTCTCCCAGCTGATGAATTTGGAACGTCGAGTAAACAAATTTTCCTAATCTTTCTGTTCAAGCGCCATCTAC | 0.355 |
| GATGATTGTTCTCCCAGCTGATGAATTAAAAATATCGAGTAAACAAATTTTCCTAATCTTTCTGTTCAAGCGCCATCTAC | 0.441 |
| GATGATTGTTCTCCCAGCTGATGAATTCCCTCCATCGAGTAAACAAATTTTCCTAATCTTTCTGTTCAAGCGCCATCTAC | 0.264 |
| GATGATTGTTCTCCCAGCTGATGAATTCGTGGGCTCGAGTAAACAAATTTTCCTAATCTTTCTGTTCAAGCGCCATCTAC | 0.512 |
| GATGATTGTTCTCCCAGCTGATGAATTTAGAGTATCGAGTAAACAAATTTTCCTAATCTTTCTGTTCAAGCGCCATCTAC | 0.816 |
| GATGATTGTTCTCCCAGCTGATGAATTGATGCATTCGAGTAAACAAATTTTCCTAATCTTTCTGTTCAAGCGCCATCTAC | 6.87 |
| GATGATTGTTCTCCCAGCTGATGAATTACCTTTGTCGAGTAAACAAATTTTCCTAATCTTTCTGTTCAAGCGCCATCTAC | 0.396 |
| GATGATTGTTCTCCCAGCTGATGAATTTAACGGTTCGAGTAAACAAATTTTCCTAATCTTTCTGTTCAAGCGCCATCTAC | 0.415 |
| GATGATTGTTCTCCCAGCTGATGAATTCCGTAAATCGAGTAAACAAATTTTCCTAATCTTTCTGTTCAAGCGCCATCTAC | 0.308 |
| GATGATTGTTCTCCCAGCTGATGAATTAAGATTATCGAGTAAACAAATTTTCCTAATCTTTCTGTTCAAGCGCCATCTAC | 0.835 |
| GATGATTGTTCTCCCAGCTGATGAATTGACTACTTCGAGTAAACAAATTTTCCTAATCTTTCTGTTCAAGCGCCATCTAC | 0.404 |
| GATGATTGTTCTCCCAGCTGATGAATTCAATATGTCGAGTAAACAAATTTTCCTAATCTTTCTGTTCAAGCGCCATCTAC | 1.43 |
| GATGATTGTTCTCCCAGCTGATGAATTTGCGTGATCGAGTAAACAAATTTTCCTAATCTTTCTGTTCAAGCGCCATCTAC | 2.35 |
| GATGATTGTTCTCCCAGCTGATGAATTGCGCCTTTCGAGTAAACAAATTTTCCTAATCTTTCTGTTCAAGCGCCATCTAC | 6.82 |
| GATGATTGTTCTCCCAGCTGATGAATTCCCTTCCTCGAGTAAACAAATTTTCCTAATCTTTCTGTTCAAGCGCCATCTAC | 0.222 |
| GATGATTGTTCTCCCAGCTGATGAATTAAGTGAATCGAGTAAACAAATTTTCCTAATCTTTCTGTTCAAGCGCCATCTAC | 0.328 |
| GATGATTGTTCTCCCAGCTGATGAATTCACATCTTCGAGTAAACAAATTTTCCTAATCTTTCTGTTCAAGCGCCATCTAC | 0.465 |
| GATGATTGTTCTCCCAGCTGATGAATTACTCCGGTCGAGTAAACAAATTTTCCTAATCTTTCTGTTCAAGCGCCATCTAC | 0.189 |

| Sequence | binding signal (RPM ratio (pull-down/input)) |
| --- | --- |
| GATGATTGTTCTCCCAGCTGATGAATTGCGGGAATCGAGTAAACAAATTTTCCTAATCTTTCTGTTCAAGCGCCATCTAC | 0.552 |
| GATGATTGTTCTCCCAGCTGATGAATTCTACGGTTCGAGTAAACAAATTTTCCTAATCTTTCTGTTCAAGCGCCATCTAC | 0.317 |
| GATGATTGTTCTCCCAGCTGATGAATTGCACGATTCGAGTAAACAAATTTTCCTAATCTTTCTGTTCAAGCGCCATCTAC | 0.697 |
| GATGATTGTTCTCCCAGCTGATGAATTAGCGCACTCGAGTAAACAAATTTTCCTAATCTTTCTGTTCAAGCGCCATCTAC | 0.612 |
| GATGATTGTTCTCCCAGCTGATGAATTTGCGAGATCGAGTAAACAAATTTTCCTAATCTTTCTGTTCAAGCGCCATCTAC | 0.519 |
| GATGATTGTTCTCCCAGCTGATGAATTCAAGTCATCGAGTAAACAAATTTTCCTAATCTTTCTGTTCAAGCGCCATCTAC | 0.377 |
| GATGATTGTTCTCCCAGCTGATGAATTGGAATCCTCGAGTAAACAAATTTTCCTAATCTTTCTGTTCAAGCGCCATCTAC | 0.459 |
| GATGATTGTTCTCCCAGCTGATGAATTATAGCCGTCGAGTAAACAAATTTTCCTAATCTTTCTGTTCAAGCGCCATCTAC | 0.504 |
| GATGATTGTTCTCCCAGCTGATGAATTAGAAAGTTCGAGTAAACAAATTTTCCTAATCTTTCTGTTCAAGCGCCATCTAC | 0.216 |
| GATGATTGTTCTCCCAGCTGATGAATTACGAAATTCGAGTAAACAAATTTTCCTAATCTTTCTGTTCAAGCGCCATCTAC | 0.516 |
| GATGATTGTTCTCCCAGCTGATGAATTGACCTAGTCGAGTAAACAAATTTTCCTAATCTTTCTGTTCAAGCGCCATCTAC | 0.234 |
| GATGATTGTTCTCCCAGCTGATGAATTGGAGACCTCGAGTAAACAAATTTTCCTAATCTTTCTGTTCAAGCGCCATCTAC | 0.233 |
| GATGATTGTTCTCCCAGCTGATGAATTGTTTCAGTCGAGTAAACAAATTTTCCTAATCTTTCTGTTCAAGCGCCATCTAC | 0.499 |
| GATGATTGTTCTCCCAGCTGATGAATTATCAGTTTCGAGTAAACAAATTTTCCTAATCTTTCTGTTCAAGCGCCATCTAC | 0.358 |
| GATGATTGTTCTCCCAGCTGATGAATTGTAACCATCGAGTAAACAAATTTTCCTAATCTTTCTGTTCAAGCGCCATCTAC | 1.1 |
| GATGATTGTTCTCCCAGCTGATGAATTATTTAACTCGAGTAAACAAATTTTCCTAATCTTTCTGTTCAAGCGCCATCTAC | 0.39 |
| GATGATTGTTCTCCCAGCTGATGAATTATATACCTCGAGTAAACAAATTTTCCTAATCTTTCTGTTCAAGCGCCATCTAC | 0.711 |
| GATGATTGTTCTCCCAGCTGATGAATTGGAACTATCGAGTAAACAAATTTTCCTAATCTTTCTGTTCAAGCGCCATCTAC | 0.36 |
| GATGATTGTTCTCCCAGCTGATGAATTAGGAAACTCGAGTAAACAAATTTTCCTAATCTTTCTGTTCAAGCGCCATCTAC | 0.56 |
| GATGATTGTTCTCCCAGCTGATGAATTGTCATATTCGAGTAAACAAATTTTCCTAATCTTTCTGTTCAAGCGCCATCTAC | 0.683 |
| GATGATTGTTCTCCCAGCTGATGAATTGCATACTTCGAGTAAACAAATTTTCCTAATCTTTCTGTTCAAGCGCCATCTAC | 1.27 |
